Where “and” joins values, the source holds several entries; their conditions need not be identical. Equal values may be shown once. The campaign covered roughly 410,000 compounds. About 480 (0.12%) were called active. The inconclusive results got no clear call from the source; some entries with a clear call stand among them for comparison. Cut-off read from the data, not from the text of the source: active = activation above about 50%; inconclusive = mostly about 30% to 49%; inactive = weaker than that.
What follows are molecules tested against Mucolipin-1 (Homo sapiens) (UniProt Q9GZU1) (assay: qHTS for Agonists of the Human Mucolipin Transient Receptor Potential 1 (TRPML1)). Conditions: TRPML1-expressing cells, Ca2+ dye fluorescence, FDSS; stronger effect = higher value.
Method in brief: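 Kinetic FDSS Ca2+ read in Tet-induced TRPML1-DL cells (ABD Ca8 dye plus quencher, 45-90 min RT loading): baseline, then compound, then 110 s agonist window; EC80 agonist 54-4 at 4uM final added afterwards for a 110 s antagonist window.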
Note: 0% is about no effect.

UniProt Q9GZU1, sequence (Q9GZU1 whole entry, looked up): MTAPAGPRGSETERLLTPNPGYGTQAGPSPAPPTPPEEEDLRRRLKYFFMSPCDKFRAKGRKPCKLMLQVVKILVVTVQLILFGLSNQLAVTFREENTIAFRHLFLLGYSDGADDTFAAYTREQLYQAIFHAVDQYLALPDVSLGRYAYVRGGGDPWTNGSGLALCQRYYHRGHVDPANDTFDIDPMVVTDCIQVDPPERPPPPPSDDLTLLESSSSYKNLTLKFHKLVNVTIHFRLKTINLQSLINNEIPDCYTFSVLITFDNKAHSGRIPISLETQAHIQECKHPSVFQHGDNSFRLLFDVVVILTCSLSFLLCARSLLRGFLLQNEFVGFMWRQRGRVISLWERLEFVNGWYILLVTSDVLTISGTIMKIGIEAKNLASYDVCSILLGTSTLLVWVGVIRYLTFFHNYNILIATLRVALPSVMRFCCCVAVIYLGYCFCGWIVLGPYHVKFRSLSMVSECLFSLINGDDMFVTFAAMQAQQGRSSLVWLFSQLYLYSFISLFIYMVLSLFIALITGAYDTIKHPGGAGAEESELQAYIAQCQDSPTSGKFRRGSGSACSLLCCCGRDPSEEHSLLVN

Structure (SMILES)	activation
CCN(Cc1ccccc1)c1ccc(/C=C/c2ccnc3ccccc23)cc1	inconclusive: 34.6%
COc1cc(/C=C/C=C2/CC/C(=C/C=C/c3ccc(O)c(OC)c3)C2=O)ccc1O	inconclusive: 31.5%
CCCCOC(=O)c1ccc(NC(=O)/C(C#N)=C/c2ccc(-c3ccccc3)o2)cc1	inactive: 12.1%
CCOC(=O)c1[nH]c2c(c1C)C(=O)CC(c1ccc(F)cc1)C2 (configuration not stated)	inactive: 1.22%
CCCCN1/C(=C/c2ccc3ccccc3[n+]2CC)Sc2ccccc21	inconclusive: 36.3%
Cc1ccc(/C=N/N2CCN(c3ccccc3)CC2)cc1	inactive: 0.198%
O=C(Nc1cccc(Cl)c1)c1cnc[nH]1	inactive: 0.503%
CCCCN1C(=O)/C(=C/C=C2/CC(C)(C)CN2C)SC1=S	active: 52.8%
Cc1nnsc1C(=O)N/N=C/c1ccc2ccccc2c1O	inconclusive: 40.7%
CN(C)S(=O)(=O)c1ccc(NC(=O)c2c(F)cccc2Cl)cc1	inconclusive: 30.5%
COC(=O)c1ccc(COC(=O)CNC(=O)CNC(=O)c2ccc(OC)cc2)cc1	inactive: 1.14%
CCOC(=O)c1c(NC(=O)c2ccc(S(=O)(=O)N3CCC(C)CC3)cc2)sc2c1CCN(C)C2	inconclusive: 47.4%
N#C/C(=C/c1ccc(N2CCCCC2)o1)C(=O)NCCc1c[nH]c2ccccc12	inconclusive: 34.5%
Cc1nnc(-c2ccccc2)c(=O)n1/N=C/c1c(O)ccc2ccccc12	inconclusive: 36.1%
O=C(OCn1nnc2ccccc2c1=O)c1cc(-c2ccccc2)nc2ccccc12	inconclusive: 33.5%
Cc1nn(CC(=O)N2CCc3ccccc32)c(C)c1S(=O)(=O)NC(C)(C)C	inactive: 1.04%
COc1cccc2c1[C@@H]1CN(CCCCn3c(=O)[nH]c4c(sc5ncc(-c6ccccc6)nc54)c3=O)C[C@@H]1CO2	inactive: -0.521%
CCc1nnc(NCC(=O)N2CCc3ccccc32)s1	inconclusive: 36.2%
Cc1ccc(C2=Nc3ccccc3N(C(=O)c3ccccc3)C(C)C2)cc1 (configuration not stated)	inconclusive: 48.4%
O=C(/C=C/c1ccc2c(c1)OCO2)c1ccc(F)cc1	inactive: -0.182%
CCOC(=O)C1=C(COCCN)NC(C)=C(C(=O)OC)C1c1ccccc1Cl (configuration not stated)	inconclusive: 32.4%
CCOC(=O)/C(=C/c1ccc(N2CCC(c3ccccc3)=N2)cc1)C(C)=O	inconclusive: 37.5%

Structure (SMILES)	activation
Cc1nc2ccc(NC(=O)CCC3CCCC3)cc2s1	inactive: 1.51%
CC(=O)c1cc(NC(=O)c2ccc(Cl)cc2)c(=O)oc1/C=C/N(C)C	inconclusive: 33.1%
CN(C)c1ccc(C=C2SC(=S)NC2=O)cc1	inconclusive: 45.7%
CCn1c(=O)c(C(=O)NNC(=O)c2ccccc2Cl)c(O)c2ccccc21	inconclusive: 35.2%
Cc1ccc(S(=O)(=O)N2C[C@H]3C(=O)C[C@@H](c4ccccc4)N(S(=O)(=O)c4ccc(C)cc4)[C@H]3C[C@H]2c2cccc3ccccc23)cc1	active: 56.5%
CC1CCN(C(=O)Nc2ccc3nc(-c4ccco4)c(-c4ccco4)nc3c2)CC1	inactive: 0.0962%
COc1ccccc1CNC(=O)C1CCCN(S(=O)(=O)c2cccs2)C1 (configuration not stated)	inactive: 0.814%
O=C(CCc1ccccc1)N1CCCC(Nc2ccc(F)cc2)C1 (configuration not stated)	inactive: 0.355%
NC(=O)c1cc2ccc(O)cc2oc1=NCc1ccccc1	active: 59.2%
Cc1ccc(-c2nc3c(Cl)cc(Cl)cc3c(=O)n2O)cc1	inconclusive: 30.2%
CC(=O)Nc1ccccc1OCC(=O)c1cc(C)n(Cc2cccs2)c1C	inconclusive: 36%
CCSc1ncc(Cl)c(C(=O)Nc2ccc(S(=O)(=O)N3CCCCC3CC)cc2)n1 (configuration not stated)	inconclusive: 31.1%
O=S(=O)(Nc1ccc(-c2ccc(N3CCOCC3)nn2)cc1)c1ccc(Cl)c(Cl)c1	inconclusive: 45.8%
CC1CCc2nc(-c3cc4ccc(O)cc4oc3=O)sc2C1 (configuration not stated)	inconclusive: 36.3%
CCN(CC)c1ccc2cc(C(N)=O)c(=N)oc2c1	active: 55.7%
CC(NS(C)(=O)=O)C(c1cccs1)N1CCN(c2ccccc2F)CC1 (configuration not stated)	inactive: 0.0689%
CCOC(=O)C1(C)CCCN1C(=O)c1ccc(Cl)nc1 (configuration not stated)	inconclusive: 49.1%
Oc1ccc2ccc3cccc[n+]3c2c1	inconclusive: 45.6%
Cc1cccc(-n2ncc(C(=O)N3CCN(Cc4ccccc4)CC3)c2C2CCN(C(=O)OC(C)(C)C)CC2)c1	active: 51%
Clc1ccc(N=c2ssnc2Cl)cc1	inactive: -0.12%
COC(=O)c1ccc(Cl)cc1N(Cc1c(F)cccc1Cl)S(C)(=O)=O	active: 108%
Nc1cccc(N2C(=O)c3cccc4c(N)ccc(c34)C2=O)c1	active: 55.4%

Structure (SMILES)	activation
CN(C)S(=O)(=O)c1ccc(N2CCCC2)c(C(=O)NCC2COc3ccccc3O2)c1 (configuration not stated)	inconclusive: 30.5%
O=c1c(/C=C(\O)c2ccccc2)nc2ccccc2n1-c1ccccc1	inconclusive: 37.5%
Cc1cccc(-c2ncc(S(=O)(=O)C(C)(C)C)c(N)n2)c1	inconclusive: 45.4%
CCC1CCCCN1S(=O)(=O)c1ccc(NC(=O)c2nc(SC)ncc2Cl)cc1 (configuration not stated)	inconclusive: 42.9%
Cc1nn(C)c(C)c1N1C(=O)c2cccc3c(N)ccc(c23)C1=O	active: 94%
CCC12CC1(C(=O)OC)C(=O)N1CCc3c([nH]c4ccccc34)C12 (configuration not stated)	inconclusive: 39%
O=[N+]([O-])c1ccc(N/N=C/c2c[nH]c3ccccc23)cc1	inconclusive: 38.6%
C[n+]1c2cc(N)ccc2cc2ccc(N)cc21	active: 117% and active: 104%
CCc1ccc(NC(=O)C(CC)c2ccccc2)cc1 (configuration not stated)	inconclusive: 32.2%
CCCN(CCC)c1ccc(/C=C/c2ccnc3ccccc23)cc1	inconclusive: 30.5%
Cn1c2ccccc2c2ncn(Cc3ccc(F)cc3)c(=O)c21	inactive: -0.398%
C=CCOc1ccc(C2C(C(=O)c3cccs3)=C(O)C(=O)N2c2nnc(C)s2)cc1 (configuration not stated)	inconclusive: 30.2%
COc1cccc(Nc2nnc(-c3cc4ccc(O)cc4oc3=O)s2)c1	inconclusive: 30.7%
CC1=CC2=NC(=O)/C(=C/c3coc4ccc(Cl)cc4c3=O)C(=N)N2O1	inconclusive: 31.2%
Cc1cccc(N/C(N)=N/c2nc(C)cc(C)n2)c1	inconclusive: 40.3%
O=C1c2cccc3c(N4CCCCC4)ccc(c23)C(=O)N1CCO	inconclusive: 32.6%
O=C(C1=NN(c2ccccc2)C2C(=O)N(c3ccccc3Cl)C(=O)C12)c1ccccc1 (configuration not stated)	inconclusive: 35.2%
Nc1c(C(=O)Nc2ccc(F)cc2)sc2nc(-c3cccs3)cc(C(F)(F)F)c12	inconclusive: 37%
Cc1nc(-c2ccc(S(=O)(=O)Nc3cc(Cl)ccc3C)cc2)co1	inactive: 1.77%
CCOC(=O)Cc1csc(/N=C/c2c(O)n(-c3ccccc3C(F)(F)F)c(=O)c3ccccc23)n1	inconclusive: 34.5%
CCOc1cc(/C=C2\CCCc3c2nc2ccccc2c3C(=O)O)ccc1OC	active: 77.7%
CN1CCN(C(=O)/C=C/c2cn(-c3ccccc3)nc2-c2ccc3c(c2)OCCO3)CC1	inactive: 1.45%

Structure (SMILES)	activation
Cn1ccc2c(N3CCCCC3)cc3c(c21)C1CCC3C1 (configuration not stated)	active: 57%
O=C1C(=C2SCCCS2)CC/C1=C\c1ccc(F)cc1	inconclusive: 36.9%
C=C1CCN([C@@H](CC(C)C)C(=O)NCCCc2ccccc2)S(=O)(=O)c2ccccc21	inconclusive: 36.1%
O=[N+]([O-])c1ccc(-c2ccc(/C=N/Nc3nc(NCc4ccccc4)nc(N4CCOCC4)n3)o2)cc1	inconclusive: 30.8%
NCCC(=O)N1c2ccccc2Sc2ccc(Cl)cc21	inconclusive: 39.1%
COc1ccc(/C=N/NC(=O)Nc2cccc3nsnc23)cc1	inconclusive: 46.4%
O=C(NN=Cc1c(O)ccc2ccccc12)c1ccncc1	inconclusive: 41.4%
O=C(Nc1ccccc1C(=O)O)c1ccc(Br)c(S(=O)(=O)NCc2ccccc2)c1	inactive: 2.3%
COc1ccc(C(=O)COC(=O)c2cc(=O)[nH]c3ccccc23)c(OC)c1	inactive: 1.11%
CCOc1ccc(Nc2nc(-c3cccc(Cl)c3)c3c(n2)-c2ccccc2OC3)cc1	inconclusive: 36.9%
COc1ccccc1N(CC(=O)NC1CCCC1)C(=O)c1oc(C(C)(C)C)cc1C	inconclusive: 45.5%
CC(C)(C)OC(=O)N1CCC(c2c(C(=O)NCc3cccs3)cnn2-c2cccc(F)c2)CC1	inactive: 0.968%
CC(=O)c1cccc(NC(=O)c2cc(-c3ccc(F)cc3)on2)c1	inactive: 0.114%
CCOC(=O)C1CCCN(C(=O)CC(C)c2ccccc2)C1 (configuration not stated)	inactive: 0.322%
CCCn1c(=O)c(C(=O)NNC(=O)c2ccccc2Cl)c(O)c2ccccc21	inconclusive: 42.5%
CN(CC(=O)O)c1ccc(/C=C2\C=Cc3ccccc32)cc1	inactive: -0.531% and inactive: -0.384%
Cc1ccc(CN(C)C(=O)c2cccc(S(=O)(=O)N3CCc4ccccc43)c2)cc1	inactive: 1.03%
COc1cc(/C=C(\C#N)C(=O)NCCc2ccccc2)cc(OC)c1O	inconclusive: 31.9%
Cc1cc(/C=C/c2ccnc3ccccc23)ccc1N(C)C	inconclusive: 48.7%
CS(=O)(=O)Nc1nc2n(n1)C(c1ccccc1)C=C(c1ccc(Br)cc1)N2 (configuration not stated)	inconclusive: 30.8%
CC1CCc2nc(N)c(C#N)c(-c3cccnc3)c2C1 (configuration not stated)	inactive: -0.651%

Source: PubChem BioAssay AID624414 (National Center for Advancing Translational Sciences (NCATS), 2012)
